# Results from PubChem BioAssay AID1508642 (National Center for Advancing Translational Sciences (NCATS), 2021).
# Hit rate of the full screen: of about 43,000 compounds, about 200 (0.47%) were called active. Roughly 12% stayed inconclusive and do not appear here. Calls follow the shape of the dose curve; as a rule, active = well fitted cell-killing curve with a large enough effect; inconclusive = small, poorly fitted or top-dose-only effect, or effect the other way; inactive = flat fitted curve, though single readings scatter. This is one part of the list.
# Assay: Cell viability qHTS assay in S16 Pmp22-F2sN cells; also: nearly all actives have a fitted effect of over 65% in size
# Conditions: S16 Pmp22-F2sN Schwann cells viability, CellTiter-Glo, 24 h; series mostly up to 57.5 µM; activity change, negative = cytotoxicity: at the top concentration
# How it was run: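 Viability was measured by CellTiter-Glo luminescence (15 min, room temperature). This followed 24 h at 37 °C of compound exposure (23 nL pin transfer) in S16 Pmp22-F2sN Schwann cells, 500-1,000 per well.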
# % is scaled to controls: 0 for no effect and ±100 for the full control effect.
row,Structure (SMILES),"activity change, negative = cytotoxicity"
1,CC(C)c1ccc(S(=O)(=O)c2nnn3c2nc(N2CCCC2)c2sccc23)cc1,inactive: 6.07%
2,Cc1cccc(Cn2c(=O)n3nc(-c4ccccc4)nc3c3ccccc32)c1,inactive: -16.3%
3,COc1cc2c(C(=O)Nc3cc(OC)c(OC)c(OC)c3)cn(C)c(=O)c2cc1OC,inactive: 3.15%
4,COc1ccc(-c2c(C#N)c(SCC(=O)Nc3ccccc3C)nc(C)c2C(=O)Nc2ccc(Cl)cc2)cc1,inactive: 2.73%
5,Cc1cc(O)c(C(c2cccc(F)c2)N2CCN(c3ccccc3)CC2)c(=O)n1Cc1ccco1 (stereo unspecified),inactive: -3.43%
6,COC(=O)c1c(NC(=O)CCCOc2cccc(C)c2)sc2c1CCC2,inactive: -10.6%
7,Cc1ccc(C)c(CN2C(=O)c3ccccc3S(=O)(=O)c3ccc(C(=O)OCC4CCCO4)cc32)c1 (stereo unspecified),inactive: 11.9%
8,COc1ccc(NC(=O)Cn2c(SCc3ccc(C)cc3)nc3cccnc32)cc1OC,inactive: -18.3%
9,O=C1Nc2ccccc2Oc2cc(Oc3ccccc3)ccc21,inactive: -2.98%
10,COc1ccc(Cn2c(CCC(=O)NCc3ccc(Cl)cc3)nc3cccnc32)cc1,inactive: 1.18%
11,CCOC(=O)COc1ccc(C2C(C(=O)OC)=C(C)NC3=C2C(=O)c2ccccc23)cc1Cl (stereo unspecified),inactive: 1.37%
12,COc1cccc(CNC(=O)c2cnc3sc(N4CCCC4)nn3c2=O)c1OC,inactive: 11.9%
13,CCOC(=O)CC(NC(=O)CCc1c(C)nc2c(-c3ccccc3)c(C)nn2c1C)c1ccc(OC(C)C)cc1 (stereo unspecified),inactive: 4.94%
14,CSc1ccc(CCNC(=O)NCc2noc3ccccc23)cc1,inactive: -2.34%
15,Cc1cccc(NC(=O)Cn2cc(C(=O)C3CCCCC3)c3ccccc32)c1,inactive: 0.229%
16,CCOC(=O)c1cc(S(=O)(=O)Nc2cc(OC)ccc2OC)[nH]n1,inactive: 18.6%
17,Cc1ccc(C(=O)NCC(c2ccc3c(c2)OCO3)N2CCOCC2)cc1C (stereo unspecified),inactive: -0.433%
18,COc1ccc(CNc2nc(-c3ccco3)nn2S(=O)(=O)c2ccc(Cl)cc2)cc1OC,inactive: 5.8%
19,O=C(CSc1cn(CC(=O)N2CCCC2)c2ccccc12)Nc1ccc(Cl)cc1,inactive: -6.45%
20,CC(C)c1ccc(CN(C(=O)c2cc3ccccc3oc2=O)C2CCS(=O)(=O)C2)cc1 (stereo unspecified),inactive: 7.4%
21,CCOCCn1ccc2c(OCC(=O)Nc3ccc(C(N)=O)cc3)cccc2c1=O,inactive: 9.9%

row,Structure (SMILES),"activity change, negative = cytotoxicity"
1,CCOC(=O)c1oc2ccc(S(=O)(=O)n3nc(-c4ccc(C)cc4)cc3N)cc2c1C,inactive: -11.9%
2,COc1ccc(NC(=O)C2CCN(S(=O)(=O)c3cccc(-c4noc(C)n4)c3)CC2)cc1OC,inactive: -3.61%
3,CCCc1nn2c(=O)cc(COC(=O)c3ccc(NC(=O)COc4ccc(F)cc4)cc3)nc2s1,inactive: 9.48%
4,CN(C)c1ccc(CNC(=O)C2CCN(c3nc4ccccc4[nH]3)CC2)cc1,inactive: 5.34%
5,Cc1cc(S(=O)(=O)N2CCN(Cc3noc(CCC(=O)N4CCCCC4)n3)CC2)ccc1F,inactive: -15.2%
6,COC(=O)c1cc2occc2n1Cc1nc(-c2ccccc2)oc1C,inactive: 3.02%
7,COc1ccc(C2NC(=O)N(C)C3=C2C(=O)N(c2ccc(Br)cc2)C3)cc1 (stereo unspecified),inactive: -12.6%
8,COc1ccc(NC(=O)C2=CC(c3ccco3)=NS(=O)(=O)N2C)cc1,inactive: -11.8%
9,CCCCCn1c(=O)[nH]c2cc(C(=O)Nc3ccc(F)c(F)c3)ccc2c1=O,inactive: -3.72%
10,Cc1cc(SCC(=O)NCc2ccc(Cl)cc2)nc(=O)[nH]1,inactive: -6.96%
11,Cc1ccc(S(=O)(=O)N2CCC(C(=O)NCc3ccccc3Cl)CC2)cc1,inactive: -8.56%
12,Cc1ccccc1C(=O)Nc1cccc(OCc2cc(=O)n3c(C)csc3n2)c1,inactive: 0.936%
13,CCN1CCN(Cc2c(O)ccc3c(C)c(-c4ccc(OC)cc4)c(=O)oc23)CC1,inactive: -9.51%
14,Cc1cccc(NC(=O)c2cc(S(=O)(=O)NCCc3ccccc3)ccc2F)c1C,inactive: 6.6%
15,Cc1ccc(C)c(NC(=O)CN2CCSc3ccc(S(=O)(=O)N4CCCC4)cc32)c1,inactive: 18.3%
16,COc1ccccc1N1CCN(c2ncnc3c2nnn3C)CC1,inactive: -7.06%
17,Cc1ccc(C)c(NC(=O)Cn2c(=O)n(Cc3cccs3)c(=O)c3cccnc32)c1,inactive: 11.8%
18,CC(C)(C)OC(=O)N1CCC(c2c(C(=O)N3CCN(c4ncccn4)CC3)cnn2-c2ccc(F)cc2F)CC1,inactive: 9.75%
19,COc1ccc(-c2cn3nc(N4CCC(C(=O)Nc5cc(Cl)ccc5OC)CC4)sc3n2)cc1,inactive: 26.4%
20,CCc1ccc(CNC(=O)Cc2c(C(=O)O)c(C)cn2C)cc1,inactive: 0.124%
21,CCc1nnc(SCc2nc(-c3ccccc3)oc2C)c2cc3sccc3n12,inactive: -0.899%

row,Structure (SMILES),"activity change, negative = cytotoxicity"
1,Cc1ccc(Cl)cc1NC(=O)/C(C#N)=C\c1cn(Cc2ccc(F)cc2)c2ccccc12,inactive: 2.19%
2,COc1ccc(C(=O)Nc2ccc(C(=O)OCc3cc(=O)n4nc(C(C)C)sc4n3)cc2)cc1,inactive: 3.95%
3,Cc1ccccc1C(=O)Nc1ccc2nc(SCCOc3ccccc3)sc2c1,inactive: 17.7%
4,CCOC(=O)c1c(S(=O)(=O)NCC(=O)NCc2ccc(C)cc2)c(C)n(C)c1C,inactive: -2.62%
5,Fc1ccc(CNc2cc(-c3ccccc3)nc3nncn23)cc1,inactive: -22.1%
6,COc1ccc(OC)c(NC(=O)C(CCSC)NS(=O)(=O)c2cccs2)c1 (stereo unspecified),inactive: 17.7%
7,COc1ccc(-c2nc(SCC(=O)N3CCC(C)CC3)n[nH]2)cc1,inactive: -4.57%
8,Nc1c(C(=O)Nc2ccc(Cl)cc2F)sc2nc(-c3cccs3)ccc12,inactive: 4.42%
9,O=C(NCc1ccc(F)cc1)c1cc2c(s1)-c1ccccc1SC2,inactive: 24.9%
10,O=C(CCCn1c(=O)c2ccccc2n(CC(=O)Nc2ccc(F)cc2F)c1=O)NCc1ccccc1Cl,inactive: 13.4%
11,COc1cc2c(=O)n(CCC(=O)NCC3CCCO3)c(=O)n(CC(=O)Nc3c(C)cccc3C)c2cc1OC (stereo unspecified),inactive: 7.32%
12,CCCCOC(=O)c1ccc(NC(=O)/C(C#N)=C/c2ccc(-c3ccccc3)o2)cc1,inactive: 4.77%
13,COc1cccc(CCNc2ncnc3c2nnn3C)c1,inactive: -10.8%
14,Cc1ccc(N(CC(=O)Nc2ccc(Br)c(C)c2)S(=O)(=O)c2cccs2)cc1,inactive: -3.26%
15,CN(C)c1ccc(CNC(=O)C(Cc2ccccc2)NS(=O)(=O)c2ccc3c(c2)oc(=O)n3C)cc1 (stereo unspecified),inactive: -0.201%
16,CC(=O)c1ccc(NC(=O)CSc2ccc3nc(-c4ccccc4)cn3n2)cc1,inactive: 5.45%
17,Cc1ccc(-c2cc(C(=O)N3CCN(S(=O)(=O)c4ccc(Br)s4)CC3)[nH]n2)c(C)c1,inactive: 8.53%
18,CCOc1ccc(CCNC(=O)C2Cc3ccccc3N2C(=O)CC)cc1OCC (stereo unspecified),inactive: 22.4%
19,Cc1ccccc1Oc1nc2c(c(=O)n(C)c(=O)n2C)n1Cc1ccc(Br)cc1,inactive: 6.15%
